The text below walks through data of PubChem BioAssay AID463173 (ICCB-Longwood Screening Facility, Harvard Medical School, 2010).

Each structure is given as a SMILES string. Out of some 52,000 compounds screened, about 4,300 (8.3%) were called active. No stated cut-off is given here; in the data, active means survival mostly below about 52% (no sharp cut-off); inactive means mostly above about 56%. This is one part of the list.

In this assay the test system is DeltatarO mutant. Description: growth inhibition of S. aureus wild type versus tarO mutant, primary screen, teichoic acid synthesis inhibitors, RN4220, OD600 (AID 463173). Particulars: OD600, 18 h, hits give low values, screened at 18.75 µg/mL (by protocol).
As to `Cc1c(Cl)cccc1NC(=O)C(=O)NCCc1csc(-c2ccc(C(F)(F)F)cc2)n1`, the survival is inactive: 55%.

Turning to `Cc1ccccc1Cn1c(CN2CCC(C(=O)NCc3ccc(Cl)cc3)CC2)cc2ccccc21`, the survival was inactive: 67%.

For the compound `O=S1(=O)c2ccccc2N(Cc2ccccc2F)c2ccccc21`, the survival was inactive: 92%.

Turning to `CCCCN(C)C(=O)c1ccc2c(=O)n3nc(Nc4cc(C)ccc4C)sc3nc2c1`, the survival is inactive: 125%.

As for `CS(=O)(=O)N1CCC(C(=O)NC2CCCCC2)CC1`, the survival was inactive: 71%.

Regarding `CCOC(=O)c1c(S(=O)(=O)N2CCC(C(=O)NCc3cccc(OC)c3)CC2)c(C)n(C)c1C`, the survival is inactive: 81%.

As to `Cc1cccc(N(C)C(=O)Cn2c(=O)oc3cc(S(=O)(=O)N4CCCCC4)ccc32)c1`, the survival was inactive: 64%.

Consider `COc1ccc(-c2nc3ccccc3o2)cc1NC(=O)Cc1ccc(Cl)cc1`, for which the survival is inactive: 54%.

In the case of `Cc1ccc(CC2CC(=O)N(C3CCCCC3)C2=O)cc1` (stereo not drawn), the survival is inactive: 80%.

Take `COc1cccc(N2C(=O)C(CC(=O)Nc3cccc(F)c3)N(C3CCCC3)C2=O)c1` (stereo not drawn): the survival is inactive: 122%.

Consider `Cn1ccnc1SCC(=O)Nc1cccc(Br)c1`, for which the survival is inactive: 65%.

As for `COC(=O)c1ccccc1NC(=O)Cn1c(=O)n(CCC(=O)NCc2ccc3c(c2)OCO3)c(=O)c2ccccc21`, the survival was inactive: 90%.

Turning to `COc1ccc(C(=O)c2cn(CC(=O)Nc3cc(OC)cc(OC)c3)c3ccc(OC)cc3c2=O)cc1`, the survival is inactive: 77%.

`Cc1ccc(-c2cn3nc(N4CCCC(C(=O)NCc5ccccc5F)C4)sc3n2)cc1` (stereo not drawn): the survival is inactive: 78%.

With `CC1=C(C(=O)OC2CCCC2)C(c2c(F)cccc2Cl)CC(=O)N1` (stereo not drawn), the survival is inactive: 70%.

With `Cc1ccc(Cn2nc3n(c2=O)-c2cc(Cl)ccc2OC3)cc1`, the survival was inactive: 83%.

As to `Cc1ccc(-c2csc(-c3c(N)c(C(=O)c4ccc5c(c4)OCO5)n4ccccc34)n2)cc1`, the survival is inactive: 82%.

As to `CCOC(=O)CNC(=O)N1CCN(S(=O)(=O)c2ccc3c(ccn3C)c2)CC1`, the survival was active: 32%.

For the compound `COc1ccc(CC(=O)N2CC(=O)Nc3ccc(F)cc3C2c2ccccc2)cc1` (stereo not drawn), the survival is inactive: 79%.

As to `CC(=O)c1ccc(NC(=O)C2CCN(S(=O)(=O)c3ccc4[nH]c5c(c4c3)CCCCC5)CC2)cc1`, the survival is inactive: 94%.

For `Cc1ccccc1CNC(=O)Cn1c(=O)c2cccn2c2cccnc21`, the survival was inactive: 76%.

Turning to `COc1ccccc1CNC(=O)c1ccc(N2CCCC2)c(NC(=O)NCc2ccc(C)cc2)c1`, the survival is inactive: 67%.

Take `CNC(=O)N(O)c1ccccc1`: the survival was inactive: 76%.

Consider `CCCOc1ccc(C2c3c(oc4ccccc4c3=O)C(=O)N2c2nnc(C(C)C)s2)cc1` (stereo not drawn), for which the survival is active: 58%.

`CC1CCCCN1C(=O)c1cccc(C(=O)N2CCCCC2C)c1` (stereo not drawn): the survival was inactive: 80%.

Consider `COC(=O)c1ccc(NC(=O)Cn2c(=O)oc3ccccc32)cc1`, for which the survival is inactive: 69%.

For `Cc1nc2ccn(Cc3ccco3)c(=O)c2cc1C(=O)NCc1ccc(Cl)cc1`, the survival is active: 47%.

Consider `NC(=O)c1cc(S(=O)(=O)NCc2cccc(Br)c2)cs1`, for which the survival is inactive: 91%.

Take `Cc1ccc(CNC(=O)c2ccc3c(c2)CCN3S(=O)(=O)c2ccc(Br)cc2)cc1`: the survival is inactive: 80%.

Regarding `S=c1nc(-c2csc3c2CCCC3)[nH][nH]1`, the survival was inactive: 82%.

With `COc1ccc(C2CC(=O)c3cc(-c4nc(-c5cccc([N+](=O)[O-])c5)cs4)c(=O)n(-c4ccccc4N)c3C2)cc1` (stereo not drawn), the survival was inactive: 152%.

As for `COc1ccc(N2CC(NC(=O)C3CCCCC3)CC2=O)cc1` (stereo not drawn), the survival was inactive: 99%.

On to `CCn1c(SCC(=O)Nc2cc(C)ccc2F)nnc1-c1ccccc1O`, for which the survival is inactive: 65%.

For the compound `CCN(c1ccc(OC)cc1)S(=O)(=O)c1ccc2[nH]c3c(c2c1)CCCCC3`, the survival was inactive: 80%.

`COc1ccccc1N1CCN(CC(O)COc2ccc(Cl)c(C)c2)CC1` (stereo not drawn): the survival was inactive: 59%.

On to `COc1ccc(NC(=O)CSc2nnc(-c3ccncc3)n2-c2ccccc2)cc1`, for which the survival is inactive: 77%.

Regarding `CN1CCN(C(=O)c2ccc3c(c2)N(Cc2ccc(F)cc2)C(=O)c2ccccc2S3(=O)=O)CC1`, the survival was inactive: 93%.

For `CCC(C)NC(=O)c1c2c(nc3ccccc13)C(=O)N(C1CCCCC1)C2` (stereo not drawn), the survival was inactive: 85%.

As for `O=C(CSc1n[nH]c(-c2ccc(F)cc2)n1)N1CCN(c2ccc(F)cc2)CC1`, the survival was active: -5%.

For `CCOC(=O)c1cc(S(=O)(=O)Nc2ccccc2)[nH]n1`, the survival was inactive: 102%.

For `COc1ccc(C2=NC(c3ccccc3)=Nc3ccc(C)cc3N2)cc1`, the survival is inactive: 85%.

Take `CCc1ccc(CNC(=O)C2CCN(c3nn4cc(-c5ccc(OC)cc5)nc4s3)CC2)cc1`: the survival was inactive: 76%.

Regarding `COC(=O)c1ccccc1NC(=O)c1ccc(CN2CC(=O)N3CCCCC3C2=O)cc1` (stereo not drawn), the survival was inactive: 76%.

For `CC1CCN(S(=O)(=O)c2ccc3c(c2)CCN3C(=O)Nc2ccccc2Br)CC1`, the survival is inactive: 76%.

With `COc1ccc2c(c1)cc(CNc1ccc(OC)c(OC)c1)c(=O)n2CC(=O)Nc1ccccc1C`, the survival is inactive: 88%.

For `Fc1ccc(N2CCN(c3nc4ccccc4c4nc(-c5ccccc5)nn34)CC2)cc1`, the survival is inactive: 81%.

Turning to `COc1ccc(OCC(=O)Nc2ccc(-c3nc4cc(C)cc(C)c4o3)cc2)cc1`, the survival was inactive: 75%.

As to `Cc1ccc(S(=O)(=O)Nc2cccc(-c3ccc(N4CCC(C)CC4)nn3)c2)s1`, the survival was active: -1%.

As for `CCOc1ccccc1Nc1nc2ccccc2c2nncn12`, the survival is inactive: 56%.

Regarding `COc1cccc2c1cc1c(=O)n(CC(=O)N3CCN(c4cccc(C)c4C)CC3)nc(C)n12`, the survival is inactive: 92%.

Regarding `Cc1ccc(CNC(=O)C2CCN(S(=O)(=O)N3CCCCC3)CC2)cc1`, the survival is inactive: 98%.

`COc1ccc(CCNC(=O)CCc2c(C)nc3c4c(C)cc(C)nc4nn3c2C)cc1OC`: the survival is inactive: 82%.

Consider `CCOc1ccc(CNC(=O)c2ccc3oc(=O)n(Cc4ccccc4)c3c2)cc1`, for which the survival was inactive: 79%.

As to `CCc1cccc(NS(=O)(=O)c2c(C)[nH]c(=O)[nH]c2=O)c1`, the survival is inactive: 46%.

With `O=C(NCc1cccc(Cl)c1)c1c2c(nc3ccccc13)C(=O)N(C1CCCCC1)C2`, the survival was inactive: 144%.

Turning to `CC(=O)Nc1cccc(NC(=O)c2cc3c(=O)n4cccc(C)c4nc3n2C)c1`, the survival was inactive: 105%.

As for `CCOc1ccccc1Nc1ncnc2c1cnn2-c1ccc(C)cc1`, the survival was inactive: 87%.

As for `CCCn1cc(S(=O)(=O)c2ccc(C)cc2)c(=O)c2cc(F)c(N3CCCC3)cc21`, the survival is inactive: 80%.

Take `COc1cc(NC(=O)c2ccc(C)c(Cl)c2)ccc1NC(=O)c1cc2ccccc2o1`: the survival was inactive: 63%.

As for `COc1ccc(CC(=O)Nc2nc3c(s2)CC(C)CC3)cc1` (stereo not drawn), the survival is inactive: 75%.

As for `Cc1ccc(NC(=O)C2CCCN(S(=O)(=O)c3ccc4[nH]c(=O)ccc4c3)C2)cc1Cl` (stereo not drawn), the survival is inactive: 75%.

With `COc1ccc2c(c1)c1c(c(=O)n(CCc3ccccc3)c(=O)n1Cc1cccc(Cl)c1)n2C`, the survival was inactive: 76%.

For `COc1cc2c(cc1OC)C(c1cc3cc4c(cc3[nH]c1=O)OCO4)N(C(=O)c1ccco1)CC2` (stereo not drawn), the survival is inactive: 94%.

Consider `COc1ccc(-n2ncc3c(NCCCOC(C)C)ncnc32)cc1`, for which the survival is active: 0%.

For `O=C(CCc1nc(CN2CCN(S(=O)(=O)c3ccc(Br)cc3)CC2)no1)N1CCCCC1`, the survival was inactive: 70%.

For `CCCCNC(=O)C1CCCN(S(=O)(=O)CCC)C1` (stereo not drawn), the survival was inactive: 82%.

Regarding `CCc1nn(CC(=O)NC2CC2)c(=O)c2cc3c(OC)cccc3n12`, the survival was inactive: 83%.

As to `COc1cc(NC(=O)Cn2c(=O)n(CC3CCC(C(=O)NCCc4ccccc4)CC3)c(=O)c3ccccc32)cc(OC)c1` (stereo not drawn), the survival was inactive: 107%.

`COc1cc2cc(CNc3ccccc3)c(=O)n(CC(=O)Nc3cccc(Cl)c3C)c2cc1OC`: the survival was inactive: 49%.

Consider `COc1cccc(Cn2cc(C(=O)c3ccccc3)c(=O)c3cc4c(cc32)OCO4)c1`, for which the survival is inactive: 94%.

`CCCCOc1ccc(CNC(=O)c2cccc(NC(=O)N3CCSc4ncccc43)c2)cc1`: the survival was inactive: 89%.

As for `Cc1c(C(=O)NCc2ccc(Cl)cc2)oc2ccc3c(c12)C(=O)CC(C)(C)O3`, the survival was active: 53%.

On to `Cc1ccc(CNC(=O)CSc2ncc3c(n2)-c2cc(Cl)ccc2N(C)S3(=O)=O)cc1`, for which the survival was inactive: 69%.

With `COc1ccccc1CNC(=O)C1CCN(c2nc3ccc(Cl)cc3[nH]2)CC1`, the survival is active: 25%.

Regarding `COc1cc2c(=O)n(CCC(=O)NCC3CCCO3)c(=O)n(CC(=O)Nc3ccccc3C)c2cc1OC` (stereo not drawn), the survival was inactive: 136%.

Turning to `CCc1nn(CC(=O)NCCc2ccc(OC)cc2OC)c(=O)c2cc3occc3n12`, the survival is inactive: 68%.

In the case of `CCCCc1ccc(-n2nc3cc(C)c(NC(=O)c4ccc(C#N)cc4F)cc3n2)cc1`, the survival was inactive: 88%.

In the case of `Cc1ccc(NCc2cccn2-c2nnc(N3CCC(C(=O)NCCc4ccc(Cl)cc4)CC3)s2)cc1`, the survival is inactive: 59%.

With `CCc1ccc(C(=O)c2cn(CC(=O)Nc3ccc4c(c3)OCCO4)c3ccc(F)cc3c2=O)cc1`, the survival is inactive: 78%.

As to `COc1ccc(-n2c(C)nc3c(cnn3-c3ccc(F)cc3)c2=O)cc1`, the survival is inactive: 73%.

Turning to `CCCCN(CC)CCCNC(=O)c1c(C)oc2ncnc(N3CCOCC3)c12`, the survival was inactive: 55%.

In the case of `COc1c(O)cccc1-c1nnn(CCC(=O)OCC(=O)c2ccccc2)n1`, the survival was inactive: 66%.

With `CCc1nn2c(=O)cc(COC(=O)c3cccc(NC(=O)CCc4ccccc4)c3)nc2s1`, the survival was inactive: 84%.

In the case of `CCOC(=O)c1cnc2cc(-c3ccc(OCC)cc3)nn2c1-c1ccccc1`, the survival was inactive: 68%.

As to `CC(CN(C)C)OC(=O)c1ccc2c(c1)OCO2` (stereo not drawn), the survival is inactive: 111%.

As for `COCCc1nn2c(=O)cc(COC(=O)C(c3ccccc3)c3ccccc3)nc2s1`, the survival is inactive: 130%.

Regarding `Cc1cc(NC(=O)n2ncc3c(C)cccc32)ccc1Br`, the survival was inactive: 85%.

With `CCc1ccc(NC(=O)CC2C(=O)N(c3cccc(C)c3)C(=O)N2Cc2ccc(F)cc2)cc1` (stereo not drawn), the survival was inactive: 89%.
